The supplement of paper PMC12458215
± gives the uncertainty stated by the source.

tested on: HEK293T; experiment: plasma membrane surface immunostaining intensity (anti-HA, deep receptor scanning) (arbitrary fluorescence units); higher = higher plasma membrane expression; settings: GPCR class: A

“MPGHNTSRNSSCDPIVTPHLISLYFIVLIGGLVGVISILFLLVKMNTRSVTTMAVINLVVVHSVFLLTVPFRLTYLIKKTWMFGLPFCKFVSAMLHIHMYLTFLFYVVILVTRYLIFFKCKDKVEFYRKLHAVAASAGMWTLVIVIVVPLVVSRYGIHEEYNEEHCFKFHKELAYTYVKIINYMIVIFVIAVAVILLVFQVFIIMLMVQKLRHSLLSHQEFWAQLKNLFFIGVILVCFLPYQFFRIYYLNVVTHSNACNSKVAFYNEIFLSVTAISCYDLLLFVFGGSHWFKQKIIGLWNCVLCR [GPR141]” and “MSVKPSWGPGPSEGVTAVPTSDLGEIHNWTELLDLFNHTLSECHVELSQSTKRVVLFALYLAMFVVGLVENLLVICVNWRGSGRAGLMNLYILNMAIADLGIVLSLPVWMLEVTLDYTWLWGSFSCRFTHYFYFVNMYSSIFFLVCLSVDRYVTLTSASPSWQRYQHRVRRAMCAGIWVLSAIIPLPEVVHIQLVEGPEPMCLFMAPFETYSTWALAVALSTTILGFLLPFPLITVFNVLTACRLRQPGQPKSRRHCLLLCAYVAVFVMCWLPYHVTLLLLTLHGTHISLHCHLVHLLYFFYDVIDCFSMLHCVINPILYNFLSPHFRGRLLNAVVHYLPKDQTKAGTCASSSSCSTQHSIIITKGDSQPAAAAPHPEPSLSFQAHHLLPNTSPISPTQPLTPS [GPR182]” are within error of each other in “plasma membrane surface immunostaining intensity” value: 6452 ± 35 for the first, 6320 ± 160 for the second.

Going from “MNESRWTEWRILNMSSGIVNVSERHSCPLGFGHYSVVDVCIFETVVIVLLTFLIIAGNLTVIFVFHCAPLLHHYTTSYFIQTMAYADLFVGVSCLVPTLSLLHYSTGVHESLTCQVFGYIISVLKSVSMACLACISVDRYLAITKPLSYNQLVTPCRLRICIILIWIYSCLIFLPSFFGWGKPGYHGDIFEWCATSWLTSAYFTGFIVCLLYAPAAFVVCFTYFHIFKICRQHTKEINDRRARFPSHEVDSSRETGHSPDRRYAMVLFRITSVFYMLWLPYIIYFLLESSRVLDNPTLSFLTTWLAISNSFCNCVIYSLSNSVFRLGLRRLSETMCTSCMCVKDQEAQEPKPRKRANSCSI [GPR52]” to “MPSVSPAGPSAGAVPNATAVTTVRTNASGLEVPLFHLFARLDEELHGTFPGLWLALMAVHGAIFLAGLVLNGLALYVFCCRTRAKTPSVIYTINLVVTDLLVGLSLPTRFAVYYGARGCLRCAFPHVLGYFLNMHCSILFLTCICVDRYLAIVRPEGSRRCRQPACARAVCAFVWLAAGAVTLSVLGVTGSRPCCRVFALTVLEFLLPLLVISVFTGRIMCALSRPGLLHQGRQRRVRAMQLLLTVLIIFLVCFTPFHARQVAVALWPDMPHHTSLVVYHVAVTLSSLNSCMDPIVYCFVTSGFQATVRGLFGQHGEREPSSGDVVSMHRSSKGSGRHHILSAGPHALTQALANGPEA [GPR20]”, the “plasma membrane surface immunostaining intensity” value rises from 757 ± 170 to 3750 ± 220.

Going from “MEEPQPPRPPASMALLGSQHSGAPSAAGPPGGTSSAATAAVLSFSTVATAALGNLSDASGGGTAAAPGGGGLGGSGAAREAGAAVRRPLGPEAAPLLSHGAAVAAQALVLLLIFLLSSLGNCAVMGVIVKHRQLRTVTNAFILSLSLSDLLTALLCLPAAFLDLFTPPGGSAPAAAAGPWRGFCAASRFFSSCFGIVSTLSVALISLDRYCAIVRPPREKIGRRRALQLLAGAWLTALGFSLPWELLGAPRELAAAQSFHGCLYRTSPDPAQLGAAFSVGLVVACYLLPFLLMCFCHYHICKTVRLSDVRVRPVNTYARVLRFFSEVRTATTVLIMIVFVICCWGPYCFLVLLAAARQAQTMQAPSLLSVVAVWLTWANGAINPVIYAIRNPNISMLLGRNREEGYRTRNVDAFLPSQGPGLQARSRSRLRNRYANRLGACNRMSSSNPASGVAGDVAMWARKNPVVLFCREGPPEPVTAVTKQPKSEAGDTSL [GPR135]” to “MDKLDANVSSEEGFGSVEKVVLLTFLSTVILMAILGNLLVMVAVCWDRQLRKIKTNYFIVSLAFADLLVSVLVMPFGAIELVQDIWIYGEVFCLVRTSLDVLLTTASIFHLCCISLDRYYAICCQPLVYRNKMTPLRIALMLGGCWVIPTFISFLPIMQGWNNIGIIDLIEKRKFNQNSNSTYCVFMVNKPYAITCSVVAFYIPFLLMVLAYYRIYVTAKEHAHQIQMLQRAGASSESRPQSADQHSTHRMRTETKAAKTLCIIMGCFCLCWAPFFVTNIVDPFIDYTVPGQVWTAFLWLGYINSGLNPFLYAFLNKSFRRAFLIILCCDDERYRRPSILGQTVPCSTTTINGSTHVLRDAVECGGQWESQCHPPATSPLVAAQPSDT [HTR4]”, the “plasma membrane surface immunostaining intensity” value rises from 198 ± 14 to 5930 ± 170.

First: MATALPPRLQPVRGNETLREHYQYVGKLAGRLKEASEGSTLTTVLFLVICSFIVLENLMVLIAIWKNNKFHNRMYFFIGNLALCDLLAGIAYKVNILMSGKKTFSLSPTVWFLREGSMFVALGASTCSLLAIAIERHLTMIKMRPYDANKRHRVFLLIGMCWLIAFTLGALPILGWNCLHNLPDCSTILPLYSKKYIAFCISIFTAILVTIVILYARIYFLVKSSSRKVANHNNSERSMALLRTVVIVVSVFIACWSPLFILFLIDVACRVQACPILFKAQWFIVLAVLNSAMNPVIYTLASKEMRRAFFRLVCNCLVRGRGARASPIQPALDPSRSKSSSSNNSSHSPKVKEDLPHTAPSSCIMDKNAALQNGIFCN [S1PR3]
Second: MGQCYYNETIGFFYNNSGKELSSHWRPKDVVVVALGLTVSVLVLLTNLLVIAAIASNRRFHQPIYYLLGNLAAADLFAGVAYLFLMFHTGPRTARLSLEGWFLRQGLLDTSLTASVATLLAIAVERHRSVMAVQLHSRLPRGRVVMLIVGVWVAALGLGLLPAHSWHCLCALDRCSRMAPLLSRSYLAVWALSSLLVFLLMVAVYTRIFFYVRRRVQRMAEHVSCHPRYRETTLSLVKTVVIILGAFVVCWTPGQVVLLLDGLGCESCNVLAVEKYFLLLAEANSLVNAAVYSCRDAEMRRTFRRLLCCACLRQSTRESVHYTSSAQGGASTRIMLPENGHPLMDSTL [LPAR2]
The “plasma membrane surface immunostaining intensity” value of the first is higher: 2240 ± 660 for the first, 786 ± 170 for the second.

First: MKHIINSYENINNTARNNSDCPRVVLPEEIFFTISIVGVLENLIVLLAVFKNKNLQAPMYFFICSLAISDMLGSLYKILENILIILRNMGYLKPRGSFETTADDIIDSLFVLSLLGSIFSLSVIAADRYITIFHALRYHSIVTMRRTVVVLTVIWTFCTGTGITMVIFSHHVPTVITFTSLFPLMLVFILCLYVHMFLLARSHTRKISTLPRANMKGAITLTILLGVFIFCWAPFVLHVLLMTFCPSNPYCACYMSLFQVNGMLIMCNAVIDPFIYAFRSPELRDAFKKMIFCSRYW [MC2R]
Second: MGSLYSEYLNPNKVQEHYNYTKETLETQETTSRQVASAFIVILCCAIVVENLLVLIAVARNSKFHSAMYLFLGNLAASDLLAGVAFVANTLLSGSVTLRLTPVQWFAREGSAFITLSASVFSLLAIAIERHVAIAKVKLYGSDKSCRMLLLIGASWLISLVLGGLPILGWNCLGHLEACSTVLPLYAKHYVLCVVTIFSIILLAIVALYVRIYCVVRSSHADMAAPQTLALLKTVTIVLGVFIVCWLPAFSILLLDYACPVHSCPILYKAHYFFAVSTLNSLLNPVIYTWRSRDLRREVLRPLQCWRPGVGVQGRRRGGTPGHHLLPLRSSSSLERGMHMPTSPTFLEGNTVV [S1PR2]
The “plasma membrane surface immunostaining intensity” value of the first is lower: 683 ± 200 for the first, 3710 ± 390 for the second.

“MAAQNGNTSFTPNFNPPQDHASSLSFNFSYGDYDLPMDEDEDMTKTRTFFAAKIVIGIALAGIMLVCGIGNFVFIAALTRYKKLRNLTNLLIANLAISDFLVAIICCPFEMDYYVVRQLSWEHGHVLCASVNYLRTVSLYVSTNALLAIAIDRYLAIVHPLKPRMNYQTASFLIALVWMVSILIAIPSAYFATETVLFIVKSQEKIFCGQIWPVDQQLYYKSYFLFIFGVEFVGPVVTMTLCYARISRELWFKAVPGFQTEQIRKRLRCRRKTVLVLMCILTAYVLCWAPFYGFTIVRDFFPTVFVKEKHYLTAFYVVECIAMSNSMINTVCFVTVKNNTMKYFKKMMLLHWRPSQRGSKSSADLDLRTNGVPTTEEVDCIRLK [PROKR2]” was tested, and the “plasma membrane surface immunostaining intensity” value was 485 ± 21.

same assay, conditions: GPCR class: B

Compared with “MAGLGASLHVWGWLMLGSCLLARAQLDSDGTITIEEQIVLVLKAKVQCELNITAQLQEGEGNCFPEWDGLICWPRGTVGKISAVPCPPYIYDFNHKGVAFRHCNPNGTWDFMHSLNKTWANYSDCLRFLQPDISIGKQEFFERLYVMYTVGYSISFGSLAVAILIIGYFRRLHCTRNYIHMHLFVSFMLRATSIFVKDRVVHAHIGVKELESLIMQDDPQNSIEATSVDKSQYIGCKIAVVMFIYFLATNYYWILVEGLYLHNLIFVAFFSDTKYLWGFILIGWGFPAAFVAAWAVARATLADARCWELSAGDIKWIYQAPILAAIGLNFILFLNTVRVLATKIWETNAVGHDTRKQYRKLAKSTLVLVLVFGVHYIVFVCLPHSFTGLGWEIRMHCELFFNSFQGFFVSIIYCYCNGEVQAEVKKMWSRWNLSVDWKRTPPCGSRRCGSVLTTVTHSTSSQSQVAASTRMVLISGKAAKIASRQPDSHITLPGYVWSNSEQDCLPHSFHEETKEDSGRQGDDILMEKPSRPMESNPDTEGCQGETEDVL [PTH2R]”, “MATPRGLGALLLLLLLPTSGQEKPTEGPRNTCLGSNNMYDIFNLNDKALCFTKCRQSGSDSCNVENLQRYWLNYEAHLMKEGLTQKVNTPFLKALVQNLSTNTAEDFYFSLEPSQVPRQVMKDEDKPPDRVRLPKSLFRSLPGNRSVVRLAVTILDIGPGTLFKGPRLGLGDGSGVLNNRLVGLSVGQMHVTKLAEPLEIVFSHQRPPPNMTLTCVFWDVTKGTTGDWSSEGCSTEVRPEGTVCCCDHLTFFALLLRPTLDQSTVHILTRISQAGCGVSMIFLAFTIILYAFLRLSRERFKSEDAPKIHVALGGSLFLLNLAFLVNVGSGSKGSDAACWARGAVFHYFLLCAFTWMGLEAFHLYLLAVRVFNTYFGHYFLKLSLVGWGLPALMVIGTGSANSYGLYTIRDRENRTSLELCWFREGTTMYALYITVHGYFLITFLFGMVVLALVVWKIFTLSRATAVKERGKNRKKVLTLLGLSSLVGVTWGLAIFTPLGLSTVYIFALFNSLQGVFICCWFTILYLPSQSTTVSSSTARLDQAHSASQE [ADGRG3]” is higher in “plasma membrane surface immunostaining intensity” value: 1640 ± 550 for the first, 6470 ± 56 for the second.

same assay, conditions: GPCR class: C

With “MVCEGKRSASCPCFFLLTAKFYWILTMMQRTHSQEYAHSIRVDGDIILGGLFPVHAKGERGVPCGELKKEKGIHRLEAMLYAIDQINKDPDLLSNITLGVRILDTCSRDTYALEQSLTFVQALIEKDASDVKCANGDPPIFTKPDKISGVIGAAASSVSIMVANILRLFKIPQISYASTAPELSDNTRYDFFSRVVPPDSYQAQAMVDIVTALGWNYVSTLASEGNYGESGVEAFTQISREIGGVCIAQSQKIPREPRPGEFEKIIKRLLETPNARAVIMFANEDDIRRILEAAKKLNQSGHFLWIGSDSWGSKIAPVYQQEEIAEGAVTILPKRASIDGFDRYFRSRTLANNRRNVWFAEFWEENFGCKLGSHGKRNSHIKKCTGLERIARDSSYEQEGKVQFVIDAVYSMAYALHNMHKDLCPGYIGLCPRMSTIDGKELLGYIRAVNFNGSAGTPVTFNENGDAPGRYDIFQYQITNKSTEYKVIGHWTNQLHLKVEDMQWAHREHTHPASVCSLPCKPGERKKTVKGVPCCWHCERCEGYNYQVDELSCELCPLDQRPNMNRTGCQLIPIIKLEWHSPWAVVPVFVAILGIIATTFVIVTFVRYNDTPIVRASGRELSYVLLTGIFLCYSITFLMIAAPDTIICSFRRVFLGLGMCFSYAALLTKTNRIHRIFEQGKKSVTAPKFISPASQLVITFSLISVQLLGVFVWFVVDPPHIIIDYGEQRTLDPEKARGVLKCDISDLSLICSLGYSILLMVTCTVYAIKTRGVPETFNEAKPIGFTMYTTCIIWLAFIPIFFGTAQSAEKMYIQTTTLTVSMSLSASVSLGMLYMPKVYIIIFHPEQNVQKRKRSFKAVVTAATMQSKLIQKGNDRPNGEVKSELCESLETNTSSTKTTYISYSNHSI [GRM8]” the “plasma membrane surface immunostaining intensity” value was 6470 ± 80.
